Values joined by “and” are separate entries in the source; they are usually repeats but may differ in a detail not shown here. Equal values may be shown once. Read-outs that look alike come from different tables or passages of the source.
What was measured:
[1] = test system: LOX IMVI melanoma cells; settings: log10 conc -8.0; 0.01 µM
[2] = test system: HCT-116 colon cancer cells; experiment: cells; settings: Homo sapiens; for activity at 10 µM: HCT-116, read-out: Percent Growth, log10 conc -5.0; for activity at 0.1 µM: HCT-116, read-out: Percent Growth, log10 conc -7.0; for activity at 0.01 µM: HCT-116, read-out: Percent Growth, log10 conc -8.0
[3] = test system: MDA-MB-231/ATCC breast cancer cells
[4] = test system: HT29 colon cancer cells; settings: log10 conc -5.0; 10 µM
[5] = test system: NCI-H226 non-small cell lung cancer cells
[6] = test system: EKVX non-small cell lung cancer cells
[7] = test system: HL-60 (TB) leukemia cells; settings: 0.1 µM
[8] = test system: MCF7 breast cancer cells; experiment: cells; settings: Homo sapiens
[9] = test system: CCRF-CEM leukemia cells; experiment: cells; settings: Homo sapiens
[10] = test system: NCI-H522 non-small cell lung cancer cells; experiment: cells; settings: Homo sapiens
[11] = test system: MCF7 breast cancer cells
[12] = test system: SR leukemia cells; experiment: cells
[13] = test system: MDA-MB-435 breast cancer cells; experiment: cells; settings: Homo sapiens
[14] = test system: SK-MEL-2 melanoma cells; experiment: cells; settings: Homo sapiens
[15] = test system: M14 melanoma cells; experiment: cells; settings: Homo sapiens
[16] = test system: K-562 leukemia cells
[17] = test system: COLO 205 colon cancer cells; experiment: cells; settings: Homo sapiens, COLO 205, read-out: Percent Growth
[18] = test system: NCI-H226 non-small cell lung cancer cells; experiment: cells; settings: Homo sapiens
[19] = test system: MDA-N breast cancer cells; experiment: cells; settings: Homo sapiens
[20] = test system: KM12 colon cancer cells; experiment: cells; settings: Homo sapiens
[21] = test system: COLO 205 colon cancer cells; settings: 0.01 µM
[22] = test system: SK-MEL-28 melanoma cells; experiment: cells; settings: Homo sapiens
[23] = test system: HT29 colon cancer cells; experiment: cells; settings: Homo sapiens
[24] = test system: HCT-15 colon cancer cells
[25] = read-out: Percent Growth, log10 conc -4.0
[26] = read-out: Percent Growth, log10 conc -5.0
[27] = read-out: Percent Growth, log10 conc -9.0
[28] = read-out: Percent Growth, log10 conc -10.0

With `CCCC(=O)NC1CCc2cc(OC)c(OC)c(OC)c2-c2ccc(C(C)=O)cc21` (stereo not drawn) the “Percent Growth” value [1] was 24%, the activity at 10 µM [2] was 6% and the activity at 1 µM ([2]; HCT-116, read-out: Percent Growth, log10 conc -6.0) was 6%. For the same compound, the activity at 0.1 µM [2] was 7%, the activity at 0.01 µM [2] was 12% and the “Percent Growth” value ([3]; log10 conc -4.0, 100 µM) was 18%. For the same compound, the “Percent Growth” value ([3]; log10 conc -5.0, 10 µM) was 2%, the “Percent Growth” value ([3]; log10 conc -6.0, 1 µM) was 0% and -1% and the “Percent Growth” value ([3]; log10 conc -7.0, 0.1 µM) was 0% and -10%. For the same compound, the “Percent Growth” value [4] was -3% and -4%, the “Percent Growth” value ([5]; log10 conc -4.0, 100 µM) was -15% and -7% and the “Percent Growth” value ([5]; log10 conc -5.0, 10 µM) was -22% and -20%. The “Percent Growth” value ([5]; log10 conc -6.0, 1 µM) was -18% and -23%, the “Percent Growth” value ([5]; log10 conc -7.0, 0.1 µM) was -18% and -21% and the “Percent Growth” value ([6]; log10 conc -4.0, 100 µM) was 16%. For the same compound, the “Percent Growth” value ([6]; log10 conc -5.0, 10 µM) was 40%, the “Percent Growth” value ([6]; log10 conc -6.0, 1 µM) was 34% and the “Percent Growth” value ([6]; log10 conc -7.0, 0.1 µM) was 30%. For the same compound, the “Percent Growth” value ([6]; log10 conc -8.0, 0.01 µM) was 30%.

`COc1cc2c(c(OC)c1OC)-c1ccc(C(C)=O)cc1C(NC(C)=O)CC2` (stereo not drawn) was tested, and the “Percent Growth” value [7] was 7%, the activity at 100 µM ([8]; MCF7, read-out: Percent Growth, log10 conc -4.0) was 15% and the activity at 10 µM ([8]; MCF7, read-out: Percent Growth, log10 conc -5.0) was 9%. It also gave an activity at 1 µM ([8]; MCF7, read-out: Percent Growth, log10 conc -6.0) of 11%, an activity at 0.1 µM ([8]; MCF7, read-out: Percent Growth, log10 conc -7.0) of 8% and an activity at 0.01 µM ([8]; MCF7, read-out: Percent Growth, log10 conc -8.0) of 11%. The activity at 0.001 µM ([8]; MCF7, read-out: Percent Growth, log10 conc -9.0) was 14%, the activity at 0.0001 µM ([8]; MCF7, read-out: Percent Growth, log10 conc -10.0) was 95% and the activity at 100 µM [9, 25] was -15%. For the same compound, the activity at 10 µM [9, 26] was 3%, the activity at 0.001 µM [9, 27] was -15% and the activity at 0.0001 µM [9, 28] was 63%. It also gave an activity at 100 µM ([10]; NCI-H522, read-out: Percent Growth, log10 conc -4.0) of -5%, an activity at 10 µM ([10]; NCI-H522, read-out: Percent Growth, log10 conc -5.0) of -8% and an activity at 1 µM ([10]; NCI-H522, read-out: Percent Growth, log10 conc -6.0) of 2%. For the same compound, the activity at 0.001 µM ([10]; NCI-H522, read-out: Percent Growth, log10 conc -9.0) was 22%, the activity at 0.0001 µM ([10]; NCI-H522, read-out: Percent Growth, log10 conc -10.0) was 96% and the “Percent Growth” value ([11]; log10 conc -6.0, 1 µM) was 10%. For the same compound, the “Percent Growth” value ([11]; log10 conc -7.0, 0.1 µM) was 10%, the “Percent Growth” value ([11]; log10 conc -8.0, 0.01 µM) was 10% and the activity at 100 µM [12, 25] was 11%. The activity at 10 µM [12, 26] was 19%, the activity at 0.001 µM [12, 27] was -39% and the activity at 0.0001 µM [12, 28] was 28%. The activity at 100 µM ([13]; MDA-MB-435, read-out: Percent Growth, log10 conc -4.0) was -35%, the activity at 10 µM ([13]; MDA-MB-435, read-out: Percent Growth, log10 conc -5.0) was -42% and the activity at 0.001 µM ([13]; MDA-MB-435, read-out: Percent Growth, log10 conc -9.0) was -46%. The activity at 0.0001 µM ([13]; MDA-MB-435, read-out: Percent Growth, log10 conc -10.0) was 66%, the activity at 100 µM ([2]; HCT-116, read-out: Percent Growth, log10 conc -4.0) was 4% and the activity at 10 µM [2] was 6%. The activity at 0.1 µM [2] was 14%, the activity at 0.01 µM [2] was 12% and the activity at 0.001 µM ([2]; HCT-116, read-out: Percent Growth, log10 conc -9.0) was 21%. It also gave an activity at 0.0001 µM ([2]; HCT-116, read-out: Percent Growth, log10 conc -10.0) of 106%, an activity at 100 µM ([14]; SK-MEL-2, read-out: Percent Growth, log10 conc -4.0) of 27% and an activity at 10 µM ([14]; SK-MEL-2, read-out: Percent Growth, log10 conc -5.0) of 26%. The activity at 1 µM ([14]; SK-MEL-2, read-out: Percent Growth, log10 conc -6.0) was 33%, the activity at 0.1 µM ([14]; SK-MEL-2, read-out: Percent Growth, log10 conc -7.0) was 39% and the activity at 0.01 µM ([14]; SK-MEL-2, read-out: Percent Growth, log10 conc -8.0) was 49%. The activity at 0.001 µM ([14]; SK-MEL-2, read-out: Percent Growth, log10 conc -9.0) was 42%, the activity at 0.0001 µM ([14]; SK-MEL-2, read-out: Percent Growth, log10 conc -10.0) was 92% and the activity at 100 µM ([15]; M14, read-out: Percent Growth, log10 conc -4.0) was 12%. It also gave an activity at 10 µM ([15]; M14, read-out: Percent Growth, log10 conc -5.0) of 24%, an activity at 0.01 µM ([15]; M14, read-out: Percent Growth, log10 conc -8.0) of 12% and an activity at 0.001 µM ([15]; M14, read-out: Percent Growth, log10 conc -9.0) of 7%. The activity at 0.0001 µM ([15]; M14, read-out: Percent Growth, log10 conc -10.0) was 55%, the “Percent Growth” value ([16]; log10 conc -6.0, 1 µM) was -5% and 4% and the “Percent Growth” value ([16]; log10 conc -7.0, 0.1 µM) was 4%. For the same compound, the “Percent Growth” value ([16]; log10 conc -8.0, 0.01 µM) was 6%, the activity at 10 µM [17] was 0% and the activity at 100 µM [17] was 3%. For the same compound, the “Percent Growth” value ([3]; log10 conc -6.0, 1 µM) was -6%, the activity at 100 µM ([18]; NCI-H226, read-out: Percent Growth, log10 conc -4.0) was 16% and the activity at 10 µM ([18]; NCI-H226, read-out: Percent Growth, log10 conc -5.0) was 15%. It also gave an activity at 0.001 µM ([18]; NCI-H226, read-out: Percent Growth, log10 conc -9.0) of 47%, an activity at 0.0001 µM ([18]; NCI-H226, read-out: Percent Growth, log10 conc -10.0) of 103% and an activity at 100 µM [19, 25] of 1%. The activity at 10 µM [19, 26] was -2%, the activity at 0.001 µM [19, 27] was -54% and the activity at 0.0001 µM [19, 28] was 75%. The activity at 100 µM ([20]; KM12, read-out: Percent Growth, log10 conc -4.0) was -5%, the activity at 10 µM ([20]; KM12, read-out: Percent Growth, log10 conc -5.0) was -20% and the activity at 0.001 µM ([20]; KM12, read-out: Percent Growth, log10 conc -9.0) was 24%. The activity at 0.0001 µM ([20]; KM12, read-out: Percent Growth, log10 conc -10.0) was 70%, the “Percent Growth” value [21] was 55% and the activity at 100 µM ([22]; SK-MEL-28, read-out: Percent Growth, log10 conc -4.0) was 50%. For the same compound, the activity at 10 µM ([22]; SK-MEL-28, read-out: Percent Growth, log10 conc -5.0) was 46%, the activity at 1 µM ([22]; SK-MEL-28, read-out: Percent Growth, log10 conc -6.0) was 57% and the activity at 0.1 µM ([22]; SK-MEL-28, read-out: Percent Growth, log10 conc -7.0) was 53%. It also gave an activity at 0.01 µM ([22]; SK-MEL-28, read-out: Percent Growth, log10 conc -8.0) of 52%, an activity at 0.001 µM ([22]; SK-MEL-28, read-out: Percent Growth, log10 conc -9.0) of 39% and an activity at 0.0001 µM ([22]; SK-MEL-28, read-out: Percent Growth, log10 conc -10.0) of 39%. For the same compound, the activity at 100 µM ([23]; HT-29, read-out: Percent Growth, log10 conc -4.0) was -45%, the activity at 10 µM ([23]; HT-29, read-out: Percent Growth, log10 conc -5.0) was -44% and the activity at 0.1 µM ([23]; HT-29, read-out: Percent Growth, log10 conc -7.0) was -44%. It also gave an activity at 0.01 µM ([23]; HT-29, read-out: Percent Growth, log10 conc -8.0) of -35%, an activity at 0.001 µM ([23]; HT-29, read-out: Percent Growth, log10 conc -9.0) of -32% and an activity at 0.0001 µM ([23]; HT-29, read-out: Percent Growth, log10 conc -10.0) of 109%. The “Percent Growth” value ([24]; log10 conc -6.0, 1 µM) was 5% and the “Percent Growth” value ([24]; log10 conc -8.0, 0.01 µM) was 50%.
